# Source: article PMC12136788
# This is one part of the list.
# T1: UNK ZnF1-6 (called full-length) (human, UniProt Q9C0B0 30-357)
# T1 sequence: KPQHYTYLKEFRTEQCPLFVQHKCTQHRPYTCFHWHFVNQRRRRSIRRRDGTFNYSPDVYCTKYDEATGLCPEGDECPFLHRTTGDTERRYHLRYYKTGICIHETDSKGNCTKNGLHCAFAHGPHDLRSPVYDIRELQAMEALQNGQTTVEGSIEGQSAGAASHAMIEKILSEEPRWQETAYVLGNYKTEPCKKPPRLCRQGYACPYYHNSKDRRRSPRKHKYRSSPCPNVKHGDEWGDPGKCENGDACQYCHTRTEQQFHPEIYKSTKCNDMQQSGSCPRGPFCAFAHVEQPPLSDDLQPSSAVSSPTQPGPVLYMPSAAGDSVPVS
# B1: chr1:114567884:114567985:-|3pUTR|ENSG00000116752|msi1|FALSE|bound_elsewhere (ssRNA)
# RNA: GGGAGUUCUACAGUCCGACGAUCUGGUAAUUCUAUUUGUAUAUCUCAACAGAAUUAAAAUGUCUAGCUUGGUGGUAUUUUUAUAGCCAUAAAAGAAAAUCUUUAGGCUUUCAAAAUAAGGAUGACUUUAGAAUAAUAUUGUGUCAACAGAGGAUUGAGCAUCA
# B2: chr1:53952023:53952124:+|CDS|ENSG00000116212|msi1|total|mutant (ssRNA)
# RNA: GGGAGUUCUACAGUCCGACGAUCUACAUGCGAGAAAAUGGGCAGCUGCACAUGGUCAAUCUGGCUCUGGAUGGUGUCAGGAGCCGCCUGCAGAAGCCAAGGCCUUUCAGACUGUUCCCCAAAGGCUUUUCUGUGGAGCUUUGCCAACAGAGGAUUGAGCAUCA
# B3: chr5:72198766:72198867:+|CDS|ENSG00000131711|msi1_unk|FALSE|overlapping (ssRNA)
# RNA: GGGAGUUCUACAGUCCGACGAUCUUCUACCUCUGCAGUCAAAGAGAAAACAGCAACUUGCCACAGUUCCUCUUCUCCACCAAUAGAUGCAGCAUCCGCAGAGCCCUAUGGCUUCCGUGCCUCAGUGUUAUUCGAUACAAUGCACAACAGAGGAUUGAGCAUCA
# B4: ENSG00000165219:stop:overlap|stop_codon|ENSG00000165219|stop_codon|NA|stop_codon (ssRNA)
# RNA: GGGAGUUCUACAGUCCGACGAUCUACCUAUAGGUAAAGAGAAUUUCUCGUAUUGGAGCUUUCUCUUAAAUCUAAUAUUUCAUUAGCCUUUGUUAUUGCUGAGUGUUUUGGAACAUAUGUUUAAGUACUUGGGAAAGUCUUUCUCAACAGAGGAUUGAGCAUCA
# B5: chr4:103158754:103158855:-|CDS|ENSG00000138778|msi1|FALSE|unique (ssRNA)
# RNA: GGGAGUUCUACAGUCCGACGAUCGGAGAAAACACGUGAGGUUCAAGAAAGACUAAAUGAGAUGGAACAGCUGAAGGAACAAUUAGAAAAUAGAGAUUCUACGCUGCAAACUGUAGAAAGGGAGAAAACACUGAUUACUGAGAACAACAGAGGAUUGAGCAUCA
# B6: chr14:100881274:100881386:-|CDS|ENSG00000254656|unk|FALSE|unique (ssRNA)
# RNA: GGGAGUUCUACAGUCCGACGAUCCGCAGGCAGCAGCAUCACGACAGCCAUCACCCAGCUGCUCACCCAGAUGCCCGCUCUCGUAGGUGCAAACACCAUCCCAGCCCAGGAGCUGGCUGAGCUGUUCCUGGGCCCUGGCCGCUGCAACAGAGGAUUGAGCAUCA
# Target: T1, UNK ZnF1-6 (called full-length)
# Test: nsRBNS (natural sequence RNA bind-n-seq); RBNS binding buffer (assumed for nsRBNS): 25 mM Tris pH 7.5, 150 mM KCl, 3 mM MgCl2, 0.01% Triton X-100, 500 ug/ml BSA, 20 U/ml SUPERase-In, 4 C; UNK is unkempt and MSI1 is Musashi-1; names of the RNAs are library labels; protein concentration not given here; high values mean tight binding
row,Binder,binding signal
1,B1,1.08 enrichment R
2,B2,0.676 enrichment R
3,B3,0.59 enrichment R
4,B4,1.01 enrichment R
5,B5,1.81 enrichment R
6,B6,0.537 enrichment R
